The source of these data is the GPR68 mutational scans of Howard et al. (2025).

First the molecules themselves.
B1: GPR68, Q15743 (parent)
chain: MGNITADNSSMSCTIDHTIHQTLAPVVYVTVLVVGFPANCLSLYFGYLQIKARNELGVYLCNLTVADLFYICSLPFWLQYVLQHDNWSHGDLSCQVCGILLYENIYISVGFLCCISVDRYLAVAHPFRFHQFRTLKAAVGVSVVIWAKELLTSIYFLMHEEVIEDENQHRVCFEHYPIQAWQRAINYYRFLVGFLFPICLLLASYQGILRAVRRSHGTQKSRKDQIQRLVLSTVVIFLACFLPYHVLLLVRSVWEASCDFAKGVFNAYHFSLLLTSFNCVADPVLYCFVSETTHRDLARLRGACLAFLTCSRTGRAREAYPLGAPEASGKSGAQGEEPELLTKLHPAFQTPNSPGSGGFPTGRLA

Scores whose standard error is large were omitted. Two further conditions of the source, in which the scores hardly spread, are not listed. Read del as a deletion of the residues named and ins as an insertion between two positions. For some of these results: How much ogerin was present is not stated here.

Variants of B1 are the subject of series [1]. In words: cAMP reporter score (Enrich2 score, wild type = 0); higher = more signal; HEK293T, FACS bins.
Series [2] covers variants of B1. In words: surface expression score (Enrich2 score, wild type = 0); higher = more signal; HEK293T, FACS bins.

Consider G263_V264del, for which the cAMP reporter score in series [1] (pH 5.5) was -1.25; in series [1] (pH 6), -1.86; in series [1] (pH 6, modulator: ogerin) it was -1.71; in series [1] (pH 6.5, modulator: ogerin), -1.34. Further, the surface expression score in series [2] was -1.56.
V264del: the cAMP reporter score in series [1] (pH 5.5) was -1.01; in series [1] (pH 6), -0.227; in series [1] (pH 6, modulator: ogerin), -0.955; in series [1] (pH 6.5, modulator: ogerin), -0.128. Besides, the surface expression score in series [2] is -1.85.
The matching figures for A261_K262insGSG: -0.918, -0.834, -1.83, -0.855 and -0.761.
The matching figures for A261_G263del: -2.28, -1.65, -1.07, -1.72 and -0.396.
The matching figures for F260_A261del: -1.3, -1.13, -1.2, -1.24 and -0.565.
Regarding F260_A261insG, the cAMP reporter score in series [1] (pH 5.5) is -0.951; in series [1] (pH 6), -1.02; in series [1] (pH 6, modulator: ogerin), -1.54; in series [1] (pH 6.5, modulator: ogerin), -1.07. The surface expression score in series [2] is -0.702.
Consider F260V, for which the cAMP reporter score is -0.424 in series [1] (pH 5.5) and -3.63 in series [1] (pH 6.5, modulator: ogerin).
Consider F260Y, for which the cAMP reporter score in series [1] (pH 5.5) is -0.457; in series [1] (pH 6), -1.33; in series [1] (pH 6, modulator: ogerin), -0.604; in series [1] (pH 6.5, modulator: ogerin) it was -0.743. The surface expression score in series [2] was 0.329.
In the same order, the values of F260W are -0.07, -1.01, 0.097, 0.046 and -0.055.
The matching figures for K262_V264del: -0.847, -1.51, -2.35, -1.12 and -1.32.
In the case of V264_F265insGSG, the cAMP reporter score is -1.84 in series [1] (pH 5.5); -1.5 in series [1] (pH 6); -1.03 in series [1] (pH 6, modulator: ogerin); -0.626 in series [1] (pH 6.5, modulator: ogerin). The surface expression score in series [2] is -2.04.
Take F265H: the cAMP reporter score is -0.771 in series [1] (pH 5.5); -1.24 in series [1] (pH 6, modulator: ogerin); -0.427 in series [1] (pH 6.5, modulator: ogerin).
Turning to F265A, the cAMP reporter score was 0.468 in series [1] (pH 5.5); 1.18 in series [1] (pH 6, modulator: ogerin); -0.201 in series [1] (pH 6.5, modulator: ogerin).
Turning to F265I, the cAMP reporter score is -0.454 in series [1] (pH 5.5); -0.39 in series [1] (pH 6); -0.271 in series [1] (pH 6, modulator: ogerin); -0.451 in series [1] (pH 6.5, modulator: ogerin). Moreover, in series [2], the surface expression score came out at 0.055.
The matching figures for F265K: -1.39, -0.427, -0.874, -0.224 and -1.35.
In the case of F265E, the cAMP reporter score in series [1] (pH 5.5) is -0.92; in series [1] (pH 6) it was -0.974; in series [1] (pH 6, modulator: ogerin), -1.34; in series [1] (pH 6.5, modulator: ogerin), -1.01. Besides, the surface expression score in series [2] was 0.567.
The matching figures for F265C: 0.204, -0.748, -1.41, -0.746 and 1.34.
The matching figures for F265G: -0.565, -0.534, -0.032, -0.39 and 0.168.
In the same order, the values of F265D are 0.358, 1.62, -0.413, -0.1 and 1.55.
Consider F265L, for which the cAMP reporter score is -0.021 in series [1] (pH 5.5); -1.16 in series [1] (pH 6); -0.119 in series [1] (pH 6, modulator: ogerin); -0.375 in series [1] (pH 6.5, modulator: ogerin). Also, the surface expression score in series [2] is 0.935.
Consider A261N, for which the cAMP reporter score in series [1] (pH 5.5) is -1.76; in series [1] (pH 6, modulator: ogerin), -2.47; in series [1] (pH 6.5, modulator: ogerin), -0.758. Moreover, the surface expression score in series [2] was -0.004.
Take A261G: the cAMP reporter score in series [1] (pH 5.5) was -0.255; in series [1] (pH 6), -0.705; in series [1] (pH 6, modulator: ogerin), -1.11; in series [1] (pH 6.5, modulator: ogerin), -1.04. The surface expression score in series [2] was -0.006.
The matching figures for A261H: -1.46, -1.37, -2.25, -0.808 and 0.939.
In the same order, the values of A261W are -1.44, -1.19, -1.84, -2.28 and -0.141.
Regarding A261R, the cAMP reporter score is -1.14 in series [1] (pH 5.5); -0.222 in series [1] (pH 6, modulator: ogerin); -0.949 in series [1] (pH 6.5, modulator: ogerin). Moreover, the surface expression score in series [2] turned out to be 1.86.
Take A261P: the cAMP reporter score was -0.296 in series [1] (pH 5.5); -1.1 in series [1] (pH 6); -0.207 in series [1] (pH 6, modulator: ogerin); -0.35 in series [1] (pH 6.5, modulator: ogerin). Moreover, the surface expression score in series [2] turned out to be 0.26.
Turning to A261Y, the cAMP reporter score is -1.24 in series [1] (pH 5.5); -1.94 in series [1] (pH 6); -1.55 in series [1] (pH 6, modulator: ogerin); -1.54 in series [1] (pH 6.5, modulator: ogerin). The surface expression score in series [2] is 0.427.
In the same order, the values of A261I are -0.186, -1.03, -0.7, -0.426 and -0.546.
In the same order, the values of A261D are -1.14, -1.4, -1.46, -1.39 and -0.315.
The matching figures for A261K: -1.22, -0.289, -1.34, -0.782 and 0.752.
For the variant A261L, the cAMP reporter score is -1.26 in series [1] (pH 5.5); -0.308 in series [1] (pH 6); -1 in series [1] (pH 6, modulator: ogerin); -0.685 in series [1] (pH 6.5, modulator: ogerin). In addition, the surface expression score in series [2] was -0.516.
The matching figures for A261S: -0.033, 0.184, -0.646, 0.228 and -1.1.
